Test results: publication PMC9911399, “Two distinct binding modes provide the RNA-binding protein RbFox with extraordinary sequence specificity”
Positions count from the first letter of the chain named. Some of the results follow.

T1: RBFOX1 RRM RbFoxmut (Fox-RRM*) (Homo sapiens, UniProt Q9NWB1 109-208, R118D;E147R;N151S;E152T)
T1 sequence: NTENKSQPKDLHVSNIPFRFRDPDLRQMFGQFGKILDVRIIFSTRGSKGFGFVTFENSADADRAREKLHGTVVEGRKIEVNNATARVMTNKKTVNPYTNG

B1: CAUAAGG (DNA:RNA)
RNA: GGGAGACCGGAAUUCAGAUUGUCCCAUAAGGUUAAAUCCCGUCGUAGCCACCA
DNA 1: CAATCTGAATTCCGGTCTCCC
DNA 2: TGGTGGCTACGACGGGATT
B2: GGCCAUG (DNA:RNA)
RNA: B1 RNA with C25G, A26G, U27C, A28C, G30U
DNA 1: CAATCTGAATTCCGGTCTCCC
DNA 2: TGGTGGCTACGACGGGATT
B3: CAUGAGA (DNA:RNA)
RNA: B1 RNA with A28G, G31A
DNA 1: CAATCTGAATTCCGGTCTCCC
DNA 2: TGGTGGCTACGACGGGATT
B4: GGUUGAA (DNA:RNA)
RNA: B1 RNA with C25G, A26G, A28U, A29G, G30A, G31A
DNA 1: CAATCTGAATTCCGGTCTCCC
DNA 2: TGGTGGCTACGACGGGATT
B5: UGCUCCC (DNA:RNA)
RNA: GGGAGACCGGAAUUCAGAUUGUCCUGCUCCCUUAAAUCCCGUCGUAGCCACCA
DNA 1: CAATCTGAATTCCGGTCTCCC
DNA 2: TGGTGGCTACGACGGGATT
B6: ACGGUCG (DNA:RNA)
RNA: B1 RNA with C25A, A26C, U27G, A28G, A29U, G30C
DNA 1: CAATCTGAATTCCGGTCTCCC
DNA 2: TGGTGGCTACGACGGGATT
B7: CUUCGUA (DNA:RNA)
RNA: B1 RNA with A26U, A28C, A29G, G30U, G31A
DNA 1: CAATCTGAATTCCGGTCTCCC
DNA 2: TGGTGGCTACGACGGGATT
B8: CUACGGA (DNA:RNA)
RNA: B1 RNA with A26U, U27A, A28C, A29G, G31A
DNA 1: CAATCTGAATTCCGGTCTCCC
DNA 2: TGGTGGCTACGACGGGATT
B9: GCCCAUC (DNA:RNA)
RNA: B5 RNA with U25G, G26C, U28C, C29A, C30U
DNA 1: CAATCTGAATTCCGGTCTCCC
DNA 2: TGGTGGCTACGACGGGATT
B10: CUUAGAG (DNA:RNA)
RNA: B1 RNA with A26U, A29G, G30A
DNA 1: CAATCTGAATTCCGGTCTCCC
DNA 2: TGGTGGCTACGACGGGATT
B11: CCCUUUA (DNA:RNA)
RNA: B5 RNA with U25C, G26C, C29U, C30U, C31A
DNA 1: CAATCTGAATTCCGGTCTCCC
DNA 2: TGGTGGCTACGACGGGATT
B12: CGAGUAA (DNA:RNA)
RNA: B1 RNA with A26G, U27A, A28G, A29U, G30A, G31A
DNA 1: CAATCTGAATTCCGGTCTCCC
DNA 2: TGGTGGCTACGACGGGATT
B13: UACGGCC (DNA:RNA)
RNA: B5 RNA with G26A, U28G, C29G
DNA 1: CAATCTGAATTCCGGTCTCCC
DNA 2: TGGTGGCTACGACGGGATT
B14: UGGUAUC (DNA:RNA)
RNA: B5 RNA with C27G, C29A, C30U
DNA 1: CAATCTGAATTCCGGTCTCCC
DNA 2: TGGTGGCTACGACGGGATT
B15: GUCCCGA (DNA:RNA)
RNA: B5 RNA with U25G, G26U, U28C, C30G, C31A
DNA 1: CAATCTGAATTCCGGTCTCCC
DNA 2: TGGTGGCTACGACGGGATT
B16: UCCAGCG (DNA:RNA)
RNA: B5 RNA with G26C, U28A, C29G, C31G
DNA 1: CAATCTGAATTCCGGTCTCCC
DNA 2: TGGTGGCTACGACGGGATT
B17: CGCCUAU (DNA:RNA)
RNA: B5 RNA with U25C, U28C, C29U, C30A, C31U
DNA 1: CAATCTGAATTCCGGTCTCCC
DNA 2: TGGTGGCTACGACGGGATT
B18: UUGAUGC (DNA:RNA)
RNA: B1 RNA with C25U, A26U, U27G, A29U, G31C
DNA 1: CAATCTGAATTCCGGTCTCCC
DNA 2: TGGTGGCTACGACGGGATT
B19: UGUACAU (DNA:RNA)
RNA: B5 RNA with C27U, U28A, C30A, C31U
DNA 1: CAATCTGAATTCCGGTCTCCC
DNA 2: TGGTGGCTACGACGGGATT
B20: UUGCCUA (DNA:RNA)
RNA: B5 RNA with G26U, C27G, U28C, C30U, C31A
DNA 1: CAATCTGAATTCCGGTCTCCC
DNA 2: TGGTGGCTACGACGGGATT
B21: CAGAAGC (DNA:RNA)
RNA: B1 RNA with U27G, G31C
DNA 1: CAATCTGAATTCCGGTCTCCC
DNA 2: TGGTGGCTACGACGGGATT
B22: CAUCUUG (DNA:RNA)
RNA: B1 RNA with A28C, A29U, G30U
DNA 1: CAATCTGAATTCCGGTCTCCC
DNA 2: TGGTGGCTACGACGGGATT
B23: GGAACCG (DNA:RNA)
RNA: B5 RNA with U25G, C27A, U28A, C31G
DNA 1: CAATCTGAATTCCGGTCTCCC
DNA 2: TGGTGGCTACGACGGGATT
B24: GUGACAC (DNA:RNA)
RNA: B5 RNA with U25G, G26U, C27G, U28A, C30A
DNA 1: CAATCTGAATTCCGGTCTCCC
DNA 2: TGGTGGCTACGACGGGATT
B25: CGAAAAC (DNA:RNA)
RNA: B1 RNA with A26G, U27A, G30A, G31C
DNA 1: CAATCTGAATTCCGGTCTCCC
DNA 2: TGGTGGCTACGACGGGATT
B26: UAUCAGU (DNA:RNA)
RNA: B1 RNA with C25U, A28C, G31U
DNA 1: CAATCTGAATTCCGGTCTCCC
DNA 2: TGGTGGCTACGACGGGATT
B27: AACUCCC (DNA:RNA)
RNA: B5 RNA with U25A, G26A
DNA 1: CAATCTGAATTCCGGTCTCCC
DNA 2: TGGTGGCTACGACGGGATT
B28: UUCCCCG (DNA:RNA)
RNA: B5 RNA with G26U, U28C, C31G
DNA 1: CAATCTGAATTCCGGTCTCCC
DNA 2: TGGTGGCTACGACGGGATT
B29: UUCGAAA (DNA:RNA)
RNA: B5 RNA with G26U, U28G, C29A, C30A, C31A
DNA 1: CAATCTGAATTCCGGTCTCCC
DNA 2: TGGTGGCTACGACGGGATT
B30: AUGGCCU (DNA:RNA)
RNA: B5 RNA with U25A, G26U, C27G, U28G, C31U
DNA 1: CAATCTGAATTCCGGTCTCCC
DNA 2: TGGTGGCTACGACGGGATT
B31: AGAUUCG (DNA:RNA)
RNA: B5 RNA with U25A, C27A, C29U, C31G
DNA 1: CAATCTGAATTCCGGTCTCCC
DNA 2: TGGTGGCTACGACGGGATT

What follows are binders tested against T1, RBFOX1 RRM RbFoxmut (Fox-RRM*) (assay: EMSA; HiTS-Eq, 1 nM pool, 10 min; buffer printed only for the single-RNA assays: 10 mM Tris pH 7.5, 150 mM NaCl, 3.4 mM EDTA, 0.001% NP-40, 30 C). Conditions: tags: His6 N-terminal (pET28a); label: 5' 32P.
Outline: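 Relative association constants, normalised to the cognate motif, were derived by comparing read counts of each RNA species with those of the control reaction. The RNA sequenced was the free fraction, separated by 8% native PAGE after a 10 min equilibration in 50 µL of 1 nM 5′-radiolabelled RNA (7 randomized nucleotides) with increasing concentrations of purified wild-type or mutant RbFox RRM.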
In the case of B1, the binding signal is reported as 0.0721 KA relative to UGCAUGU. B2 was tested, and the binding signal was 0.244 KA relative to UGCAUGU. In the case of B3, the binding signal is reported as 0.0807 KA relative to UGCAUGU. For B4, the binding signal was 0.129 KA relative to UGCAUGU. For B5, the binding signal was 0.0475 KA relative to UGCAUGU. For B6, the binding signal was 0.123 KA relative to UGCAUGU. With B7 the binding signal was 0.142 KA relative to UGCAUGU. B8 was tested, and the binding signal was 0.0651 KA relative to UGCAUGU. In the case of B9, the binding signal is reported as 0.0616 KA relative to UGCAUGU. With B10 the binding signal was 0.115 KA relative to UGCAUGU. B11 was tested, and the binding signal was 0.0917 KA relative to UGCAUGU. B12 was tested, and the binding signal was 0.12 KA relative to UGCAUGU. With B13 the binding signal was 0.185 KA relative to UGCAUGU. With B14 the binding signal was 0.356 KA relative to UGCAUGU. With B15 the binding signal was 0.0763 KA relative to UGCAUGU. B16 was tested, and the binding signal was 0.138 KA relative to UGCAUGU. For B17, the binding signal was 0.123 KA relative to UGCAUGU. For B18, the binding signal was 0.112 KA relative to UGCAUGU. With B19 the binding signal was 0.0793 KA relative to UGCAUGU. B20 was tested, and the binding signal was 0.121 KA relative to UGCAUGU. For B21, the binding signal was 0.076 KA relative to UGCAUGU. For B22, the binding signal was 0.12 KA relative to UGCAUGU. With B23 the binding signal was 0.142 KA relative to UGCAUGU. For B24, the binding signal was 0.0549 KA relative to UGCAUGU. B25 was tested, and the binding signal was 0.0621 KA relative to UGCAUGU. With B26 the binding signal was 0.0554 KA relative to UGCAUGU. With B27 the binding signal was 0.0421 KA relative to UGCAUGU. With B28 the binding signal was 0.084 KA relative to UGCAUGU. For B29, the binding signal was 0.082 KA relative to UGCAUGU. In the case of B30, the binding signal is reported as 0.103 KA relative to UGCAUGU. With B31 the binding signal was 0.137 KA relative to UGCAUGU.
